# In PubChem BioAssay AID488969 (Vanderbilt High Throughput Screening Facility, 2010):
# Over roughly 110,000 compounds, “z-score” has its median near -0.1; the highest 2% begin near 2. This is one part of the list.
# Target: Metabotropic glutamate receptor 8 (Rattus norvegicus) (UniProt P70579)
# Assay: mGluR8 Gi/Go-coupled signaling modulation – cell-based, rat, thallium flux, HTS, primary screen (AID 488969)
# Settings: HEK293 rat mGluR8, GIRK (G protein-gated inwardly rectifying potassium channel) thallium flux, FluoZin2; at 10 µM; stronger effect = higher value; submaximal glutamate (EC20) added with thallium
# UniProt P70579, sequence (P70579 whole entry, looked up): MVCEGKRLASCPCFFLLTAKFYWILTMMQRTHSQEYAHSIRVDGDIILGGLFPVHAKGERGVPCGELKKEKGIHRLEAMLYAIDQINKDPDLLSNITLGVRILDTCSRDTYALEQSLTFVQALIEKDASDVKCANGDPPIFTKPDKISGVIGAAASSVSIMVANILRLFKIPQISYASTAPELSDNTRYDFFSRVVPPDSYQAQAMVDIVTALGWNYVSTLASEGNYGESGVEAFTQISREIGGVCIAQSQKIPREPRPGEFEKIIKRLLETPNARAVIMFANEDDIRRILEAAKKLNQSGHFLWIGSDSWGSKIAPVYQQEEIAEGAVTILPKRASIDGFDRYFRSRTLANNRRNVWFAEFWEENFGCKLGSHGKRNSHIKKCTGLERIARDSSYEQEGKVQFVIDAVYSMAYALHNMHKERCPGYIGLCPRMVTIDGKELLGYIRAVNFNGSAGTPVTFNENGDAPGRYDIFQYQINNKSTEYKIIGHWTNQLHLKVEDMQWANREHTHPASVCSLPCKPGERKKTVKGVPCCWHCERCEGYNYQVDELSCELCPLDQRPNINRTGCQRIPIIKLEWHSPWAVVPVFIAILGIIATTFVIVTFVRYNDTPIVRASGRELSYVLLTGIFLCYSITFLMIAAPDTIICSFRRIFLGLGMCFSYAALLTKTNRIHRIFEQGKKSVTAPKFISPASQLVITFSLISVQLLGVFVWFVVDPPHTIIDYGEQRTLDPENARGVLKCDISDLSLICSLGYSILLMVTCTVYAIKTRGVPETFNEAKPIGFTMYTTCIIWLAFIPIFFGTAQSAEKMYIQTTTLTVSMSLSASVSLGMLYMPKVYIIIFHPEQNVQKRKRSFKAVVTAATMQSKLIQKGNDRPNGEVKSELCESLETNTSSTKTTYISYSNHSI
row,Compound,z-score
1,CCc1nnc(NC(=O)Nc2ccc(OC)cc2)s1,1.1
2,CC1(C)Cc2c(c(N3CCOCC3)nc3sc4c(NCc5ccco5)nnnc4c23)CS1,0.14
3,O=C(O)C1[C@H]2C(=O)N(C3CCCC3)C[C@]23C=C[C@H]1O3 (some centres not stated),0.231
4,Cc1cccc(C)c1NC1=NC2(CCCCC2)N=C(N)N1,0.169
5,Cc1ccc(NC2=NCC(=O)N2Cc2ccccc2)c(C)c1,-0.66
6,CCOC(=O)c1cnc(-n2nc(C)cc2C)nc1NC1CCCCC1,-0.716
7,O=C(Cn1c(NCCO)nc2ccccc21)NCCc1ccc(F)cc1,0.252
8,COC(=O)c1nn(-c2ccccc2)c(Sc2ccc(OC)cc2)c1/C=N/O,-0.214
9,CC(C)(C)C(=O)CN1CCN(C2c3ccccc3-c3ccccc32)CC1,-0.125
10,Cc1ccc(NC(=O)CSc2nc(O)cc(=O)n2C)cc1,-0.222
11,COc1cccc(NC(=O)N2CCN(c3cccc(C)c3)C(C)C2)c1 (configuration not stated),0.0155
12,C/C(CC(=O)N1CCN(C=O)CC1)=N\NC(=O)c1cc2ccccc2cc1O,-0.15
13,COc1cc(NC(=O)c2ccc(OC)c([N+](=O)[O-])c2)ccc1NC(=O)c1cccs1,-0.21
14,CCOc1ccc(C(=O)NC(Cc2ccccc2)C(=O)OC)cc1 (configuration not stated),-0.262
15,O=C(Nc1ccc(N=Nc2ccccc2)cc1)c1ccc(Cl)cc1Cl,-0.0425
16,Cc1sc(-n2c(C)ccc2C)c(C#N)c1C,0.418
17,COc1cccc(NC(=S)NCc2cccnc2)c1,-0.158
18,Cc1ccc(C(=O)NCCc2nnc(SCC(=O)Nc3nc(-c4ccccc4)cs3)n2C)cc1,0.153
19,COc1ccc(CCNS(=O)(=O)c2ccc3c(c2)CC(C)N3C(C)=O)cc1OC (configuration not stated),-0.0843
20,Cc1cc(Oc2ccc(=O)n(C)n2)nc(Oc2ccc(=O)[nH]n2)n1,0.295
21,CC1=C(C(=O)N2CCCCC2)C(c2cccs2)NC(=O)N1 (configuration not stated),-0.718
22,CCN(CC)S(=O)(=O)c1cc(Br)c(C)cc1OC,-0.159
23,O=C(CN1C(=O)NC2(CCCCCC2)C1=O)NCc1ccco1,-0.253

row,Compound,z-score
1,NC(=O)C1CCCN(C(=O)c2ccc(Cl)cc2)C1 (configuration not stated),0.0443
2,O=[N+]([O-])c1ccc(NC(=S)NCCc2ccc(Cl)cc2)cc1,0.129
3,CCN1CCn2c1nc(N1CCOCC1)nc2=O,-0.847
4,Cc1nc(N2CCC(C)CC2)c2oc3ccccc3c2n1,-0.227
5,CC(C)OC(=O)CC(=O)CSc1nc2c(c(-c3cccs3)c1C#N)CCC2,-0.238
6,CC1(C)c2ssc(=S)c2-c2ccccc2N1C(=O)c1ccco1,-0.0473
7,Cc1cc(C(=O)N/N=C/c2ccccc2Br)no1,0.19
8,CCC(=O)NC(=S)Nc1ccccc1C(F)(F)F,0.0622
9,CCn1nnnc1SCC(=O)c1ccc(C)cc1,0.138
10,COc1ccc(CCNC(=O)NC(C(F)(F)F)C(F)(F)F)cc1OC,-0.927
11,C1CCc2c(nc3nnnn3c2NC2CCCC2)C1,-0.0732
12,COc1cccc(CN2C(=O)CCC2(C)C(=O)NC2CCCCCC2)c1 (configuration not stated),1.5
13,CC(NC(=O)CSc1nc2ccccc2c(=O)n1CCCO)c1ccccc1 (configuration not stated),1.01
14,CCN(CCNC(=O)CC1Oc2ccccc2NC1=O)c1ccccc1 (configuration not stated),0.299
15,CCSc1cnc(-c2ccccc2)n1CC,0.456
16,CCOc1ccc2nc(/N=C/c3nc(-c4ccc(Br)cc4)oc3O)sc2c1,0.754
17,CCCCOC(=O)CCc1nc2ccccc2[nH]c1=O,-0.0101
18,COc1ccc(Nc2sc(C(=O)c3ccc(Cl)cc3)c(N)c2C(=O)Nc2ccccc2OC)cc1,0.241
19,Cc1ccc(NS(=O)(=O)c2ccc3c(c2)oc(=O)n3C)cc1F,0.683
20,N#Cc1ccc(CSc2nnc(Cc3cccs3)n2Cc2ccco2)cc1,-0.393
21,COCCn1c(SCC(=O)Nc2cccc(C(=O)OC)c2)nc2ccccc2c1=O,-0.907
22,c1ccc(N2CCN(Cc3cn4cccnc4n3)CC2)cc1,0.904
23,O=C(CC(=O)NC1CCCCC1)N/N=C/c1ccccc1Cl,-0.318

row,Compound,z-score
1,Cc1ccc(CNC(=O)Cc2ccc(-n3cccc3)cc2)cc1,0.0794
2,COC(=O)c1ccccc1NC(=S)NC(=O)CC(C)C,0.252
3,CCc1c(C)nc(/N=C(/NC(=O)c2ccccc2)Nc2ccccc2OC)[nH]c1=O,-0.283
4,CCOC(=O)c1oc2ccc(S(=O)(=O)n3nc(-c4ccc(Cl)cc4)cc3N)cc2c1C,-0.324
5,COc1cc(/C=N\NC(=O)c2sc(N)nc2C)cc(OC)c1OC,-0.22
6,CC(c1ccco1)N(Cc1ccco1)C(=O)Nc1ccccc1 (configuration not stated),-0.491
7,N=c1c2c(n(Cc3ccc(Cl)c(Cl)c3)c3c1CCC3)CCCC2,-0.537
8,CCOC(=O)c1ccc(-n2ccnc2)c(NC(=O)c2cccc(Br)c2)c1,-0.152
9,CCn1c(CNc2nc(-c3ccccc3)cs2)nnc1SCC(=O)NCc1ccccc1,-0.268
10,Cc1ccc(C(=O)N2c3ccc(F)cc3CCC2C)o1 (configuration not stated),-0.571
11,CCN1CCN(c2cc(C)c3cc(NC(=O)c4ccncc4)ccc3n2)CC1,1.22
12,O=C(CSc1nc2ccccc2[nH]1)N/N=C/C=C/c1ccccc1[N+](=O)[O-],-0.487
13,CC1(C)CC2(CC(c3cccs3)c3cc(Cl)c(O)cc3O2)NC(=S)N1 (configuration not stated),-0.38
14,CCN(CC)CCCNC(=O)CC1Sc2ccccc2NC1=O (configuration not stated),-0.0404
15,O=c1cnn(-c2ccc(Cl)cc2Cl)c(-c2ccccc2)c1,0.0812
16,Cc1nnc(SCC(=O)NCc2ccc3c(c2)OCO3)s1,-0.348
17,CCOC(=O)C1CCN(C(=O)Cn2cccc2C(=O)c2ccccc2)CC1,-0.187
18,Cn1cc(S(=O)(=O)N2CCN(c3ccccc3F)CC2)c(=O)n(C)c1=O,0.09
19,O=C(Cn1nnc(-c2cccc(C(F)(F)F)c2)n1)NC(=O)NCc1ccco1,-0.158
20,COc1ccccc1-c1noc(-c2cccs2)n1,-0.201
21,CC(Sc1nnc2c(n1)C1(C)CCC2C1(C)C)C(=O)Nc1ccccc1 (configuration not stated),-0.0288
22,Cc1ccc(SCCNC(=S)Nc2ccc(C)cc2C)cc1,-0.0168
23,CCOCCCNC(=S)Nc1cc(C)cc(C)c1,-0.0698

row,Compound,z-score
1,O=C(CCSCCc1ccccn1)Nc1nccs1,0.34
2,COc1ccc(C(=O)CSc2n[nH]c(-c3ccncc3)n2)cc1[N+](=O)[O-],-0.176
3,COc1ccc2oc(=O)c(C(=O)n3ccc(C)n3)cc2c1,-0.118
4,CCc1c(O)nc(SCC(=O)Nc2ccc(C)cc2)n(C2CCCCC2)c1=O,-0.292
5,Cc1ccc(S(=O)(=O)NCC(=O)N/N=C/c2ccc(Cl)cc2)cc1,-0.257
6,CSc1nc2ccc(NC(=O)C3CC(=O)N(Cc4ccccc4)C3)cc2s1 (configuration not stated),-0.391
7,COCCCn1c(-c2ccc(Cl)cc2)n[nH]c1=S,-0.927
8,C/C(=N\NC(=S)NCc1ccccc1)c1ccc(Cl)cc1,0.101
9,CCOC(=O)C1=C(O)/C(=C/c2cn(CC(=O)NCC3CCCO3)c3ccccc23)SC1=Nc1ccc(C)cc1 (configuration not stated),-0.194
10,COc1cccc(-c2nn(-c3ccccc3)cc2C(=O)NCC(=O)O)c1,-0.436
11,COc1ccccc1OCCC(=O)OCC(=O)Nc1ccc(Br)cc1,-0.0864
12,CC(=O)N1CCC(=NNc2ccc(S(=O)(=O)N3CCOCC3)cc2[N+](=O)[O-])CC1,0.476
13,Cc1cc(C)nc(N2CCC(C(=O)Nc3cccc(C(F)(F)F)c3)CC2)n1,0.196
14,O=C1C2C3C=CC(C2C(=O)N1C1CCCCC1)C1C(=O)N(C2CCCCC2)C(=O)C31 (configuration not stated),-0.0761
15,C=CCNCC(=O)NN=C(c1ccccc1)c1ccccc1,-0.503
16,CCOC(=O)c1cnn(-c2ccccc2)c1-n1cccc1C(=O)C(=O)Nc1ccc(F)cc1,0.0685
17,Cc1ccc(NC2=CC(=O)OC(C)C2)cc1 (configuration not stated),-0.119
18,CC(=O)c1c(C(C)=O)c(C)n(-c2nc(-c3ccc(Br)cc3)c(C)s2)c1C,-0.0458
19,Cc1sc(NC(=O)CN(Cc2ccc(F)cc2)C(=O)C(C)C)c(C(N)=O)c1C,-0.0634
20,O=C(NC1CCS(=O)(=O)C1)c1cnccn1 (configuration not stated),0.256
21,CCS(=O)(=O)N1Cc2ccccc2CC1C(=O)Nc1nnc(SCc2ccc(F)cc2)s1 (configuration not stated),0.399
22,Cc1cc(C)c(C(N)=O)c(SCC(=O)c2ccc(Cl)cc2)n1,0.133
23,CC1CCN(C(=S)c2ccccc2O)CC1,0.47

row,Compound,z-score
1,CCc1ccc(Nc2oc(C)cc(=O)c2C(C)=O)cc1,0.915
2,CCn1c(COc2ccccc2C)nnc1SCC(=O)CC(=O)Nc1ccccc1OC,-0.167
3,Cc1cc(C(F)(F)F)nn1CC(=O)NNC(=S)Nc1cccc(Cl)c1,-0.124
4,O=C(Cn1nnc2c(cnn2-c2ccc(F)cc2)c1=O)c1ccccc1F,0.187
5,CCC(C)Cn1c(C)nc2ccccc21 (configuration not stated),-1.22
6,O=C(/C=C\NCC(=O)c1ccccc1)c1ccc(F)cc1,0.1
7,COc1ccc(-c2csc(NC(=O)c3ccc(OCC(=O)N4CCOCC4)c(OC)c3)n2)cc1OC,-0.0158
8,COc1cc(/C=C(\NC(C)=O)C(=O)NC(C)(C)CC(C)(C)C)ccc1OC(C)=O,-0.165
9,CCOC(=O)c1c(N)sc(C(=O)N2CCCC2)c1C,-0.0606
10,O=C(Nc1cccc(C(F)(F)F)c1)/C(=C/c1ccco1)NC(=O)c1cccs1,0.0438
11,O=C(COC(=O)CNC(=O)c1cccc([N+](=O)[O-])c1)Nc1ccccc1OC(F)F,-0.0652
12,NC(=O)C1(N2CCCCC2)CCN(Cc2ccccc2Cl)CC1,-1.25
13,CCCC(c1nnnn1CCOC)N(Cc1cc2cc(C)c(C)cc2[nH]c1=O)CC1CCCO1 (configuration not stated),0.0789
14,CCN(CC)CCn1c(NCc2cccc(OC)c2)nc2ccccc21,1.66
15,Cc1nc2ccc(NC(=O)c3cc(S(=O)(=O)N4CCOCC4)ccc3C)cc2s1,-0.113
16,O=C(CSc1nnc(COc2ccc(Cl)cc2)o1)N1c2ccccc2CCc2ccccc21,-0.061
17,O=C(Cc1ccccc1)NNC(=O)Nc1cccc(Cl)c1,-0.0185
18,COc1ccc(/C(N)=N/OC(=O)Cc2cccs2)cc1,-0.337
19,COc1ccc(NC(=O)CN2CCN(S(=O)(=O)c3ccc(Cl)cc3)CC2)cc1,0.802
20,O=C(c1ccc(N2CCN(S(=O)(=O)c3ccccc3)CC2)c([N+](=O)[O-])c1)N1CCOCC1,-0.0896
